Laboratory results: PubChem BioAssay AID504332 (National Center for Advancing Translational Sciences (NCATS), 2011)
Screen size: about 350,000 compounds; about 31,000 (8.9%) were called active. Inconclusive results, whose numbers are uncertain, are shown with a selection of clear calls. The call rests on the fitted dose curve; in most records, active means well fitted inhibition curve with a large enough effect; inconclusive means small, poorly fitted or top-dose-only effect; inactive means no such curve, though single readings can be large or run the other way. Where the call is inconclusive, the potency comes from a doubtful curve fit.

target: Histone-lysine N-methyltransferase EHMT2 (Homo sapiens) (UniProt Q96KQ7); test: qHTS Assay for Inhibitors of Histone Lysine Methyltransferase G9a; details: G9a H3K9 monomethylation, AlphaScreen, 2 h; activity, negative = inhibition: at 59 µM (top of the series) unless noted; further: nearly all actives have a fitted effect of over 75% in size
Chain of UniProt Q96KQ7 (Q96KQ7 whole entry, looked up): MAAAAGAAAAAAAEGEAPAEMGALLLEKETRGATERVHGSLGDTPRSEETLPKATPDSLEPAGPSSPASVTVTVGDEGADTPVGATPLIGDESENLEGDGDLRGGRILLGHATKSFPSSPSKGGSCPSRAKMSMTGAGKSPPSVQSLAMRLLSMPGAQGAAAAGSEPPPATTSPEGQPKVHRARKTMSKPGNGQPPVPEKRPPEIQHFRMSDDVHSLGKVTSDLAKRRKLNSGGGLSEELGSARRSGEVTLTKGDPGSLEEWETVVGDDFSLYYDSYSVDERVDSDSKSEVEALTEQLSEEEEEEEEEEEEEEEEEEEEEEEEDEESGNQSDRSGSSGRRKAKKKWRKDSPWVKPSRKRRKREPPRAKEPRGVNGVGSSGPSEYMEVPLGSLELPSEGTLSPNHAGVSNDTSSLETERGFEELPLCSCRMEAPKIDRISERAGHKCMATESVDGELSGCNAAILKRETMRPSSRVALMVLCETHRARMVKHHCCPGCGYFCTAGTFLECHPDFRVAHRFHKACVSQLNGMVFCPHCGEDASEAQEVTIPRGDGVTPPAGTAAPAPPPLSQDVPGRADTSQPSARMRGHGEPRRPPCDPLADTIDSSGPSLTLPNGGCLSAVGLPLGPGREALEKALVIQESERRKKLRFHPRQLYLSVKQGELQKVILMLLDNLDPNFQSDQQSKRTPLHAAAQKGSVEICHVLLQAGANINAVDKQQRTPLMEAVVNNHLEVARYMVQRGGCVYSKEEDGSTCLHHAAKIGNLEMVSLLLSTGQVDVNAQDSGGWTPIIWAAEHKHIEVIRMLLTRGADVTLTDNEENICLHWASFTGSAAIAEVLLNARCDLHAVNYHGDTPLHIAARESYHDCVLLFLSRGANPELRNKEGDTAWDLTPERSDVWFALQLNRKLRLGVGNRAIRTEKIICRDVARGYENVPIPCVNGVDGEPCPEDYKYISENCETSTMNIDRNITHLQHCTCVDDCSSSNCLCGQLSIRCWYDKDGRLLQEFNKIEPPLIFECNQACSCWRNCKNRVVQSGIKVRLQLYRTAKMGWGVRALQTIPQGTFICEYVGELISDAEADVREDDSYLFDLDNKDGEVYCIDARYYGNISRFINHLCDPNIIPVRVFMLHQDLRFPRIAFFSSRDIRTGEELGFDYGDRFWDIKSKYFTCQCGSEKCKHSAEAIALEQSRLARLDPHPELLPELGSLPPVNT
How it was run: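 Step 1: enzyme (final 20 nM) with compound, 15 min RT. Step 2: substrate peptide 500 nM and SAM 20 uM, 2 h RT. Step 3: anti-H3K9me1 antibody and AlphaScreen beads, 10 min, then plate read.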
On the % scale 0 is the no-effect control and ±100 the full control effect; potency means the concentration at half of the fitted maximal effect; tags describe the fitted curve by direction and shape.

Row | Structure (SMILES) | Potency | activity, negative = inhibition
1 | CC1CCN(C(=O)Cn2nnc(-c3ccc([N+](=O)[O-])cc3)n2)CC1 | inconclusive: 39.8 µM [inhibitor, single point] | –
2 | O=C(NCC(c1cccs1)N1CCOCC1)c1ccccc1NS(=O)(=O)c1cc([N+](=O)[O-])ccc1Cl (centres undefined) | active: 44.7 µM | –
3 | Cc1c(C)n(CC(O)CN(CCO)CCO)c2ccccc12 (centres undefined) | – | inactive: -12.2%
4 | COc1cc(C(Nc2ccccn2)c2ccc3ccc(C)nc3c2O)cc(OC)c1O (centres undefined) | inconclusive: 0.708 µM [inhibitor, single point] | –
5 | CS(=O)(=O)N(CC(=O)Nc1ccccc1C(=O)NCc1ccco1)c1ccc2c(c1)OCCO2 | inconclusive: 79.4 µM [inhibitor, single point] | –
6 | COCCn1c(=NC(=O)c2ccc(S(=O)(=O)N3CCOCC3)cc2)sc2cc(S(N)(=O)=O)ccc21 | inconclusive: 56.2 µM [inhibitor, partial curve] | –
7 | COc1ccc(N2C(=O)CS(=O)(=O)C23C(=O)N(Cc2ccc(F)cc2)c2ccc(C)cc23)cc1 (centres undefined) | – | inactive: -26.6%
8 | COc1ccc(C(=O)NCCN=C2NS(=O)(=O)c3ccccc32)cc1 | – | inactive: -7.24% [at 102 µM]
9 | CCC(=O)N1CCc2cc(Br)cc(S(=O)(=O)N3CCCC(C(=O)Nc4cccc(C)c4C)C3)c21 (centres undefined) | – | inactive: -22.1%
10 | O=C(CC1Nc2cccc3cccc(c23)NC1=O)Nc1ccccc1 (centres undefined) | – | inactive: 2.91%
11 | Cc1ccccc1NC(=O)c1c(NC(=O)c2ccco2)sc2c1CCC(C(C)(C)C)C2 (centres undefined) | inconclusive: 14.1 µM [inhibitor, partial curve] | –
12 | CCc1ccc(OCC(=O)NNC(=O)Cc2ccc(S(=O)(=O)N3CCOCC3)s2)cc1 | inconclusive: 50.1 µM [inhibitor, partial curve] | –
13 | O=C(/C=C/c1cccc(O)c1)c1cccnc1 | inconclusive: 50.1 µM [inhibitor, partial curve, poor fit] | –
14 | S=c1nn[nH]n1C12CC3CC(CC(C3)C1)C2 | active: 1.41 µM | –
15 | O=C(COC(=O)CNC(=O)c1ccccc1)Nc1ccc2c(c1)OCO2 | inconclusive: 79.4 µM [inhibitor, single point] | –
16 | Cc1cccc(C)c1C(=O)N[C@@H](Cc1ccccc1)C(=O)O | – | inactive: 10.7%
17 | Cc1cc(NC(=O)CSc2nc(-c3cccnc3)ccc2C#N)no1 | inconclusive: 89.1 µM [inhibitor, single point] | –
18 | CCCCCc1ccc(OCCCC[n+]2ccccc2)c(CCCCC)c1 | inconclusive: 89.1 µM [inhibitor, partial curve, poor fit] | –
19 | COc1cccc(C(=O)N2CCN(C(=O)c3cccc4ccccc34)CC2)c1OC | – | inactive: -12.3%
20 | CCC(=O)N1CCc2cc(S(=O)(=O)CCC(=O)Nc3cccc(F)c3)ccc21 | active: 22.4 µM | –
21 | Cc1sc2nc(CSc3ccccc3)nc(N3CCN(C)CC3)c2c1C | inconclusive: 25.1 µM [inhibitor, single point] | –
22 | COc1cccc(-c2ccc3ncnc(N4CCOCC4)c3c2)c1 | – | inactive: 7.46% [at 0.501 µM]
23 | CN1CCN(NC(=O)c2cc(-c3cccc(Cl)c3)nc3ccccc23)CC1 | inconclusive: 6.31 µM [inhibitor, single point] | –

Row | Structure (SMILES) | Potency | activity, negative = inhibition
24 | O=C(O)c1ccc(OS(=O)(=O)c2ccc(Cl)s2)cc1 | – | inactive: 5.32% [at 0.501 µM]
25 | CCN(CC)CCN(Cc1cc2cc(C)cc(C)c2[nH]c1=O)C(=S)NCc1ccco1 | inconclusive: 25.1 µM [inhibitor, single point] | –
26 | Cc1nnc(SC(C)C(=O)Nc2ccc(N3CCOCC3)cc2)n1Cc1ccccc1 (centres undefined) | active: 70.8 µM | –
27 | O=C(COC(=O)[C@@H]1CCCN1S(=O)(=O)c1ccc(Cl)cc1)NC1CC1 | inconclusive: 22.4 µM [inhibitor, partial curve, poor fit] | –
28 | COc1ccc(CCNC(=O)CSc2nc(O)c(CC(C)C)c(=O)[nH]2)cc1OC | inconclusive: 89.1 µM [inhibitor, single point] | –
29 | O=C(CCCOc1ccc(Cl)cc1Cl)Nc1ccncc1 | inconclusive: 89.1 µM [inhibitor, single point] | –
30 | NC(=S)N/N=C/c1coc2ccc(F)cc2c1=O | – | inactive: 6.14% [at 102 µM]
31 | CC(C)N1CCN(CC2COc3ccccc3O2)CC1 (centres undefined) | inconclusive: 56.2 µM [inhibitor, single point] | –
32 | N#CC1=C(SCC(=O)c2cc3ccccc3oc2=O)NC(=O)C(C#N)C12CCCC2 (centres undefined) | inconclusive: 31.6 µM [inhibitor, single point] | –
33 | CN(CCC1CCOCC1)C(=O)CC1C(=O)NCCN1Cc1c(F)cccc1Cl (centres undefined) | active: 39.8 µM | –
34 | CCCc1nnc(NC(=O)C2CCCO2)s1 (centres undefined) | – | inactive: -9.53% [at 102 µM]
35 | COC(=O)[C@@H](Cc1ccccc1)NC(=O)[C@H]1CCC(=O)N1C(=O)OCc1ccccc1 | – | inactive: -8.83% [at 12.7 µM]
36 | COc1ccc(N2CCN(C(=O)c3ccc(C)c(Cl)c3)CC2)cc1 | inconclusive: 17.8 µM [inhibitor, single point] | –
37 | Cc1cc2c(cc1S(=O)(=O)N(C)CC(=O)Nc1ccc(C#N)cc1)OCC(=O)N2 | – | inactive: 6.2%
38 | O=C(O)Cn1cc(CN2CCOCC2)c2ccccc21 | inconclusive: 89.1 µM [inhibitor, single point] | –
39 | NS(=O)(=O)c1ccc(CCNC(=O)c2ccc3nc(CCc4ccccc4)oc3c2)cc1 | – | inactive: 1.21%
40 | COC(=O)c1ccccc1NC(=O)C1CCCN(c2nnc(-n3cccc3)s2)C1 (centres undefined) | inconclusive: 39.8 µM [inhibitor, full curve] | –
41 | C/C(=N\O)C(=O)NCCN1CCCCC1 | inconclusive: 70.8 µM [inhibitor, single point] | –
42 | Cc1cc(NC(=O)c2cccs2)no1 | inconclusive: 1.41 µM [inhibitor, single point] | –
43 | Cn1c(CNS(=O)(=O)c2ccc(F)cc2)n[nH]c1=S | – | inconclusive: -70.1% [inhibitor]
44 | O=C(Nc1cccc(S(=O)(=O)NC2=NCCCCC2)c1)c1ccc(Cl)cc1 | active: 50.1 µM | –
45 | CCN(CC(=O)Nc1c(F)cccc1F)C(=O)C1CC(=O)N(CCc2ccccc2)C1 (centres undefined) | inconclusive: 1.78 µM [inhibitor, full curve] | –
46 | Cn1nc(-c2ccccc2)c2cc(C(=O)O)sc21 | inconclusive: 89.1 µM [inhibitor, partial curve, poor fit] | –

Row | Structure (SMILES) | Potency | activity, negative = inhibition
47 | COc1ccc(-c2nc3cc(C)ccn3c2NC(=O)c2ccc(F)cc2)cc1 | inconclusive: 28.2 µM [inhibitor, partial curve, poor fit] | –
48 | CCCCn1nc(C(=O)Nc2cc(S(=O)(=O)N(C)C)ccc2C)c2ccccc2c1=O | inconclusive: 89.1 µM [inhibitor, partial curve, poor fit] | –
49 | CCOC(=O)C1CCCN(C2CC(=O)N(c3ccc(NC(C)=O)cc3)C2=O)C1 (centres undefined) | inconclusive: 1.58 µM [inhibitor, partial curve, poor fit] | –
50 | CCOc1ccc(CCNC(=O)c2nc(-c3cccc(F)c3)n3c2CCCCC3)cc1OCC | active: 28.2 µM | –
51 | COc1ccc(CNCC(O)COCc2cccs2)cc1 (centres undefined) | inconclusive: 11.2 µM [inhibitor, partial curve, poor fit] | –
52 | O=C(Nc1cccc(C(F)(F)F)c1)c1cccnc1N1CCOCC1 | inconclusive: 89.1 µM [inhibitor, partial curve, poor fit] | –
53 | Cc1ccc(C(=O)N2CCN(c3ncccn3)CC2)cc1S(=O)(=O)N1CCCCC1 | inconclusive: 3.16 µM [inhibitor, single point] | –
54 | COc1ccc2oc(C(=O)Nc3ccc(N4CCOCC4)cc3)c(C)c2c1 | active: 50.1 µM | –
55 | CN1CCc2c(sc(NC(=O)c3cc4cc([N+](=O)[O-])ccc4s3)c2C(N)=O)C1 | active: 25.1 µM | –
56 | CCC(=O)Nc1ccc(C2=Nn3c(nnc3C(C)C)SC2)cc1 | active: 14.1 µM | –
57 | N#CCCn1cc(/C=C2\NC(=S)N(c3ccccc3)C2=O)c(-c2ccc(-c3ccccc3)cc2)n1 | – | inactive: 14.2%
58 | COC(=O)c1ccccc1NC(=S)NC(=O)c1ccc(C)cc1 | inconclusive: 31.6 µM [inhibitor, single point] | –
59 | CCOc1ccccc1NC(=O)Cn1nnc(C(=O)NCc2ccco2)c1N | – | inconclusive: -52.8% [inhibitor] [at 0.0925 µM]
60 | CCNC(=S)NS(=O)(=O)c1ccc(Cl)cc1 | inconclusive: 22.4 µM [inhibitor, single point] | –
61 | CCN(CC(=O)Nc1c(F)cccc1F)C(=O)c1ccc(S(=O)(=O)N2CCCCC2)cc1 | – | inactive: 0.134% [at 12.7 µM]
62 | CC(C)C(=O)Nc1ccc(C(=O)NNC(=O)c2cccs2)cc1 | – | inactive: 61.3%
63 | CCN1CCc2nc(NC(=O)c3ccccc3)sc2C1 | inconclusive: 31.6 µM [inhibitor, single point] | –
64 | C#CCOCCOCCOCCNc1nc(N2CCN(C(=O)[C@H](CCCCN)n3cc([C@@H](N)C(C)CC)nn3)CC2)nc(N2CCN(C(=O)[C@H](CCCCN)n3cc([C@@H](N)CC(C)C)nn3)CC2)n1 (some centres undefined) | – | inconclusive: -74.4% [inhibitor]
65 | CSCCC(N=C(NS(=O)(=O)c1ccccc1)c1ccccc1)C(=O)O (centres undefined) | inconclusive: 89.1 µM [inhibitor, partial curve, poor fit] | –
66 | COc1ccc([N+](=O)[O-])cc1NC(=O)Cc1noc2ccccc12 | – | inactive: -1.63% [at 102 µM]
67 | COC(=O)CCc1c(C)[nH]c(=S)[nH]c1=O | inconclusive: 79.4 µM [inhibitor, single point] | –
68 | NS(=O)(=O)c1ccc(CCNC(=O)CNCCc2ccc(C(F)(F)F)cc2)cc1 | – | inactive: -0.665% [at 102 µM]
69 | CCN1CCN(C(=S)Nc2ccsc2C(=O)OC)CC1 | inconclusive: 79.4 µM [inhibitor, partial curve] | –
